Source: the supplement of paper PMC7266297
Counter-ions that a name gives are not always drawn. The list shows a part of the results. Many values rest on one well or one pass, so single values are uncertain.

Test system: KB-3-1
Test: growth inhibition relative to DMSO control (SRB); cervical cancer cells: KB-3-1 is the parent and KB-V1 overexpresses MDR1; SRB is the sulforhodamine B stain; higher = more growth inhibition
Settings: 1 µM; 72 h
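Further: Read-out is SRB optical density at 490 nm, with the control being wells given 0.5% DMSO vehicle, and compound added one day after cells were plated.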

Compound	growth inhibition
Cc1[nH]c(/C=C2\C(=O)Nc3ccccc32)c(C)c1CCC(=O)O [TSU-68 (SU6668, Orantinib)]	32.5%
CC#C[C@]1(O)CC[C@H]2[C@@H]3CCC4=CC(=O)CCC4=C3[C@@H](c3ccc(N(C)C)cc3)C[C@@]21C [Mifepristone]	< 0%
Cc1cc(/C=C/C#N)cc(C)c1Nc1ccnc(Nc2ccc(C#N)cc2)n1 [Rilpivirine]	3.98%
O=C(/C=C\n1cnc(-c2cc(C(F)(F)F)cc(C(F)(F)F)c2)n1)NNc1cnccn1	31.5%
C[C@H](N[C@@H](CCc1ccccc1)C(=O)O)C(=O)N1CCC[C@H]1C(=O)O [Enalaprilat Dihydrate]	25.6%
CCc1ccc(CCOc2ccc(CC3SC(=O)NC3=O)cc2)nc1 (stereo not drawn) [Pioglitazone HCl]	20.3%
N#C[C@@H]1C[C@@H]2C[C@@H]2N1C(=O)[C@@H](N)C12CC3CC(CC(O)(C3)C1)C2 [Saxagliptin]	25.4%
CCOc1nc2cccc(C(=O)OC(C)OC(=O)OC3CCCCC3)c2n1Cc1ccc(-c2ccccc2-c2nn[nH]n2)cc1 (stereo not drawn) [Candesartan Cilexetil]	55.4%
COC(=O)[C@H](c1ccccc1Cl)N1CCc2sccc2C1 [Clopidogrel]	13.2%
CCOC(=O)C1=C(C)NC(C)=C(C(=O)OCC)C1c1ccccc1/C=C/C(=O)OC(C)(C)C [Lacidipine]	47.3%
Cc1nn(-c2ccccc2)c(C)c1C=NN1CCN(Cc2ccccc2)CC1	7.63%
CCCc1nc(C(C)(C)O)c(C(=O)OCc2oc(=O)oc2C)n1Cc1ccc(-c2ccccc2-c2nnn[nH]2)cc1 [Olmesartan Medoxomil]	27.6%
Cn1c(Nc2ccc(C(F)(F)F)cc2)nc2cc(Oc3ccnc(-c4ncc(C(F)(F)F)[nH]4)c3)ccc21	< 0%
CC(=O)SCC(Cc1ccccc1)C(=O)NCC(=O)OCc1ccccc1 (stereo not drawn) [Racecadotril]	31.3%
COCCOC(=O)C1=C(C)NC(C)=C(C(=O)OC/C=C/c2ccccc2)C1c1cccc([N+](=O)[O-])c1 (stereo not drawn) [Cilnidipine]	14.4%
COCCCOc1cc(C[C@@H](C[C@H](N)[C@@H](O)C[C@H](C(=O)NCC(C)(C)C(N)=O)C(C)C)C(C)C)ccc1OC [Aliskiren Hemifumarate]	< 0%
O=C1NC(=O)/C(=C/c2ccc3c(c2)OC(F)(F)O3)S1	< 0%
Cc1cccc(CC(=O)N2CCc3c2ccc(-c2cn(C)c4ncnc(N)c24)c3F)n1	33.6%
COc1cc2ncc(-c3ccccc3)nc2cc1OC [Tyrphostin AG 1296]	44.2%
COc1cc2nccc(Oc3ccc(NC(=O)NC4CC4)c(Cl)c3)c2cc1C(N)=O [Lenvatinib (E7080)]	41.3%
COc1cc2ncnc(Nc3ccc(F)c(Cl)c3)c2cc1OCCCN1CCOCC1 [Gefitinib (ZD1839)]	26.2%
CC(C)c1nc(CN(C)C(=O)N[C@H](C(=O)N[C@@H](Cc2ccccc2)C[C@H](O)[C@H](Cc2ccccc2)NC(=O)OCc2cncs2)C(C)C)cs1 [Ritonavir]	30.9%
CCOC(=O)[C@H](CCc1ccccc1)N[C@@H](C)C(=O)N1[C@H](C(=O)O)C[C@@H]2CCC[C@@H]21 [Ramipril]	47.5%
CCOC(=O)N1CCC(=C2c3ccc(Cl)cc3CCc3cccnc32)CC1 [Loratadine]	10.6%

Test system: KB-V1
Test: as above
Settings: 1 µM; 72 h

Compound	growth inhibition
CN(C)CCN(Cc1ccccc1)c1ccccn1 [Tripelennamine HCl]	< 0%
C=CC(=O)Nc1ccc2ncnc(Nc3ccc(OCc4cccc(F)c4)c(Cl)c3)c2c1	36.4%
O=C1NCCc2[nH]c(-c3ccncc3)cc21	4.69%
CCc1c(C(=O)NCCc2ccc(N3CCCCC3)cc2)[nH]c2ccc(Cl)cc12	13.5%
COCCCC/C(=N\OCCN)c1ccc(C(F)(F)F)cc1 [Fluvoxamine maleate]	64.4%
Cc1ccc(-c2cc(C(F)(F)F)nn2-c2ccc(S(N)(=O)=O)cc2)cc1 [Celecoxib]	22.3%
COc1cc(-c2ncn(/C=C\C(=O)OC(C)C)n2)cc(C(F)(F)F)c1	76.1%
Cc1nc(NC(=O)N2CCC[C@H]2C(N)=O)sc1-c1ccnc(C(C)(C)C(F)(F)F)c1	14.9%
Cc1ccc(Nc2c(F)cccc2Cl)c(CC(=O)O)c1 [Lumiracoxib]	2.58%
O=C(O)CCc1ccc(NCc2cccc(Oc3ccccc3)c2)cc1	1.85%
c1ccc(-c2nn3c(c2-c2ccnc4cc(OCCN5CCOCC5)ccc24)CCC3)nc1	< 0%
CC[N+](CC)(CC)CCOc1cccc(OCC[N+](CC)(CC)CC)c1OCC[N+](CC)(CC)CC [Gallamine Triethiodide]	21.2%
CNC(=O)c1ccc(N2C(=S)N(c3ccc(C#N)c(C(F)(F)F)c3)C(=O)C2(C)C)cc1F [Enzalutamide (MDV3100)]	39.2%
Cc1cc(C(C)(C)C)c(O)c(C)c1CC1=NCCN1 [Oxymetazoline HCl]	4.26%
Cc1cc2c(cc1CC(=O)c1sccc1S(=O)(=O)Nc1onc(C)c1Cl)OCO2 [Sitaxentan sodium]	3.17%
Cc1[nH]c(/C=C2\C(=O)Nc3ccccc32)c(C)c1CCC(=O)O [TSU-68 (SU6668, Orantinib)]	18.4%
CC#C[C@]1(O)CC[C@H]2[C@@H]3CCC4=CC(=O)CCC4=C3[C@@H](c3ccc(N(C)C)cc3)C[C@@]21C [Mifepristone]	8.62%
Cc1cc(/C=C/C#N)cc(C)c1Nc1ccnc(Nc2ccc(C#N)cc2)n1 [Rilpivirine]	< 0%
O=C(/C=C\n1cnc(-c2cc(C(F)(F)F)cc(C(F)(F)F)c2)n1)NNc1cnccn1	15.5%
C[C@H](N[C@@H](CCc1ccccc1)C(=O)O)C(=O)N1CCC[C@H]1C(=O)O [Enalaprilat Dihydrate]	12.8%

Compound	growth inhibition
CCc1ccc(CCOc2ccc(CC3SC(=O)NC3=O)cc2)nc1 (stereo not drawn) [Pioglitazone HCl]	20.3%
N#C[C@@H]1C[C@@H]2C[C@@H]2N1C(=O)[C@@H](N)C12CC3CC(CC(O)(C3)C1)C2 [Saxagliptin]	13.1%
CCOc1nc2cccc(C(=O)OC(C)OC(=O)OC3CCCCC3)c2n1Cc1ccc(-c2ccccc2-c2nn[nH]n2)cc1 (stereo not drawn) [Candesartan Cilexetil]	10.8%
COC(=O)[C@H](c1ccccc1Cl)N1CCc2sccc2C1 [Clopidogrel]	37.2%
CCOC(=O)C1=C(C)NC(C)=C(C(=O)OCC)C1c1ccccc1/C=C/C(=O)OC(C)(C)C [Lacidipine]	21.3%
Cc1nn(-c2ccccc2)c(C)c1C=NN1CCN(Cc2ccccc2)CC1	3.67%
CCCc1nc(C(C)(C)O)c(C(=O)OCc2oc(=O)oc2C)n1Cc1ccc(-c2ccccc2-c2nnn[nH]2)cc1 [Olmesartan Medoxomil]	11%
Cn1c(Nc2ccc(C(F)(F)F)cc2)nc2cc(Oc3ccnc(-c4ncc(C(F)(F)F)[nH]4)c3)ccc21	43.9%
CC(=O)SCC(Cc1ccccc1)C(=O)NCC(=O)OCc1ccccc1 (stereo not drawn) [Racecadotril]	5.32%
COCCOC(=O)C1=C(C)NC(C)=C(C(=O)OC/C=C/c2ccccc2)C1c1cccc([N+](=O)[O-])c1 (stereo not drawn) [Cilnidipine]	35.9%
COCCCOc1cc(C[C@@H](C[C@H](N)[C@@H](O)C[C@H](C(=O)NCC(C)(C)C(N)=O)C(C)C)C(C)C)ccc1OC [Aliskiren Hemifumarate]	51.4%
O=C1NC(=O)/C(=C/c2ccc3c(c2)OC(F)(F)O3)S1	< 0%
Cc1cccc(CC(=O)N2CCc3c2ccc(-c2cn(C)c4ncnc(N)c24)c3F)n1	29.6%
COc1cc2ncc(-c3ccccc3)nc2cc1OC [Tyrphostin AG 1296]	11.7%
COc1cc2nccc(Oc3ccc(NC(=O)NC4CC4)c(Cl)c3)c2cc1C(N)=O [Lenvatinib (E7080)]	34%
COc1cc2ncnc(Nc3ccc(F)c(Cl)c3)c2cc1OCCCN1CCOCC1 [Gefitinib (ZD1839)]	18.2%
CC(C)c1nc(CN(C)C(=O)N[C@H](C(=O)N[C@@H](Cc2ccccc2)C[C@H](O)[C@H](Cc2ccccc2)NC(=O)OCc2cncs2)C(C)C)cs1 [Ritonavir]	36.7%
CCOC(=O)[C@H](CCc1ccccc1)N[C@@H](C)C(=O)N1[C@H](C(=O)O)C[C@@H]2CCC[C@@H]21 [Ramipril]	23.5%
CCOC(=O)N1CCC(=C2c3ccc(Cl)cc3CCc3cccnc32)CC1 [Loratadine]	39.6%
